# Data reported in the supplement of paper PMC8728848.
# The other results are listed elsewhere or left out.
# Key:
# Experiment in all cases: glycan array binding signal (z-score within array); higher = stronger binding
# Conditions in all cases: glycan notation: IUPAC condensed, linker removed
# [1] = molecular target: Fuc(a1-2)[Gal(a1-3)]Gal(b1-4)GlcNAc(b1-2)Man(a1-3)[Fuc(a1-2)[Gal(a1-3)]Gal(b1-4)GlcNAc(b1-2)Man(a1-6)]Man(b1-4)GlcNAc(b1-4)GlcNAc
# In short: (§1)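 The binding signal is a Z-score computed within each array. Data were drawn from 3228 arrays in the Consortium for Functional Glycomics database, restricted to those with a known protein sequence. Scores were averaged over arrays of the same protein sequence at different concentrations or buffers, and over linkers, and negative values can be taken as non-binding.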
# [2] = molecular target: Fuc(a1-2)[Gal(a1-3)]Gal(b1-4)GlcNAc(b1-2)Man(a1-3)[Fuc(a1-2)[Gal(a1-3)]Gal(b1-4)GlcNAc(b1-2)Man(a1-6)]Man(b1-4)GlcNAc(b1-4)[Fuc(a1-6)]GlcNAc
# In short: as §1
# [3] = molecular target: Fuc(a1-2)[Gal(a1-3)]Gal(b1-4)GlcNAc(b1-3)GalNAc
# In short: as §1
# [4] = molecular target: Fuc(a1-2)[Gal(a1-3)]Gal(b1-4)GlcNAc(b1-3)[Fuc(a1-2)[Gal(a1-3)]Gal(b1-4)GlcNAc(b1-6)]GalNAc
# In short: as §1
# [5] = molecular target: Fuc(a1-2)[Gal(a1-3)]Gal(b1-4)GlcNAc(b1-6)GalNAc
# In short: as §1
# [6] = molecular target: Fuc(a1-2)[Gal(a1-3)]Gal(b1-4)[Fuc(a1-3)]Glc
# In short: as §1
# [7] = molecular target: Fuc(a1-2)[Gal(a1-3)]Gal(b1-4)[Fuc(a1-3)]GlcNAc
# In short: as §1
# [8] = molecular target: Fuc(a1-2)[Gal(a1-3)]Gal(b1-4)[Fuc(a1-3)]GlcNAc(b1-3)GalNAc
# In short: as §1
# [9] = molecular target: Fuc(a1-2)[Gal(a1-4)]Gal(b1-4)GlcNAc
# In short: as §1
# [10] = molecular target: Fuc(a1-2)[GalNAc(a1-3)]Gal
# In short: as §1
# [11] = molecular target: Fuc(a1-2)[GalNAc(a1-3)]Gal(b1-3)GalNAc(a1-3)[Fuc(a1-2)]Gal(b1-4)GlcNAc
# In short: as §1
# [12] = molecular target: Fuc(a1-2)[GalNAc(a1-3)]Gal(b1-3)GalNAc(b1-3)Gal(a1-4)Gal(b1-4)Glc
# In short: as §1
# [13] = molecular target: Fuc(a1-2)[GalNAc(a1-3)]Gal(b1-3)GlcNAc
# In short: as §1
# [14] = molecular target: Fuc(a1-2)[GalNAc(a1-3)]Gal(b1-3)GlcNAc(b1-2)Man(a1-3)[Fuc(a1-2)[GalNAc(a1-3)]Gal(b1-3)GlcNAc(b1-2)Man(a1-6)]Man(b1-4)GlcNAc(b1-4)GlcNAc
# In short: as §1
# [15] = molecular target: Fuc(a1-2)[GalNAc(a1-3)]Gal(b1-3)GlcNAc(b1-2)Man(a1-3)[Fuc(a1-2)[GalNAc(a1-3)]Gal(b1-3)GlcNAc(b1-2)Man(a1-6)]Man(b1-4)GlcNAc(b1-4)[Fuc(a1-6)]GlcNAc
# In short: as §1
# [16] = molecular target: Fuc(a1-2)[GalNAc(a1-3)]Gal(b1-3)GlcNAc(b1-3)GalNAc
# In short: as §1
# [17] = molecular target: Fuc(a1-2)[GalNAc(a1-3)]Gal(b1-3)GlcNAc(b1-6)GalNAc
# In short: as §1
# [18] = molecular target: Fuc(a1-2)[GalNAc(a1-3)]Gal(b1-4)Glc
# In short: as §1
# [19] = molecular target: Fuc(a1-2)[GalNAc(a1-3)]Gal(b1-4)GlcNAc
# In short: as §1
# [20] = molecular target: Fuc(a1-2)[GalNAc(a1-3)]Gal(b1-4)GlcNAc(b1-2)Man
# In short: as §1
# [21] = molecular target: Fuc(a1-2)[GalNAc(a1-3)]Gal(b1-4)GlcNAc(b1-2)Man(a1-3)[Fuc(a1-2)[GalNAc(a1-3)]Gal(b1-4)GlcNAc(b1-2)Man(a1-6)]Man(b1-4)GlcNAc(b1-4)GlcNAc
# In short: as §1
# [22] = molecular target: Fuc(a1-2)[GalNAc(a1-3)]Gal(b1-4)GlcNAc(b1-2)Man(a1-3)[Fuc(a1-2)[GalNAc(a1-3)]Gal(b1-4)GlcNAc(b1-2)Man(a1-6)]Man(b1-4)GlcNAc(b1-4)[Fuc(a1-6)]GlcNAc
# In short: as §1
# [23] = molecular target: Fuc(a1-2)[GalNAc(a1-3)]Gal(b1-4)GlcNAc(b1-3)Gal(b1-4)GlcNAc
# In short: as §1
# [24] = molecular target: Fuc(a1-2)[GalNAc(a1-3)]Gal(b1-4)GlcNAc(b1-3)Gal(b1-4)GlcNAc(b1-3)Gal(b1-4)GlcNAc
# In short: as §1
# [25] = molecular target: Fuc(a1-2)[GalNAc(a1-3)]Gal(b1-4)GlcNAc(b1-3)GalNAc
# In short: as §1
# [26] = molecular target: Fuc(a1-2)[GalNAc(a1-3)]Gal(b1-4)GlcNAc(b1-3)[Fuc(a1-2)[GalNAc(a1-3)]Gal(b1-4)GlcNAc(b1-6)]GalNAc
# In short: as §1
# [27] = molecular target: Fuc(a1-2)[GalNAc(a1-3)]Gal(b1-4)GlcNAc(b1-6)GalNAc
# In short: as §1
# [28] = molecular target: Fuc(a1-2)[GalNAc(a1-3)]Gal(b1-4)[Fuc(a1-3)]GlcNAc
# In short: as §1
# [29] = molecular target: Fuc(a1-2)[GalNAc(a1-3)]Gal(b1-4)[Fuc(a1-3)]GlcNAc(b1-3)GalNAc
# In short: as §1
# [30] = molecular target: Fuc(a1-2)[GalNAc(a1-4)]Gal(b1-4)GlcNAc
# In short: as §1
# [31] = molecular target: Fuc(a1-2)[GalNAc(b1-3)]Gal
# In short: as §1
# Fuc(a1-3)GlcNAc = molecular target: Fuc(a1-3)GlcNAc
# In short: as §1
# [32] = molecular target: Fuc(a1-3)[Gal(b1-4)]Glc6S
# In short: as §1
# [33] = molecular target: Fuc(a1-3)[Gal(b1-4)]GlcNAc
# In short: as §1
# [34] = molecular target: Fuc(a1-3)[Gal(b1-4)]GlcNAc(b1-2)Man
# In short: as §1
# [35] = molecular target: Fuc(a1-3)[Gal(b1-4)]GlcNAc(b1-2)Man(a1-3)[Fuc(a1-3)[Gal(b1-4)]GlcNAc(b1-2)Man(a1-6)]Man(b1-4)GlcNAc(b1-4)GlcNAc
# In short: as §1
# [36] = molecular target: Fuc(a1-3)[Gal(b1-4)]GlcNAc(b1-2)Man(a1-3)[Fuc(a1-3)[Gal(b1-4)]GlcNAc(b1-2)Man(a1-6)]Man(b1-4)GlcNAc(b1-4)[Fuc(a1-6)]GlcNAc
# In short: as §1
# [37] = molecular target: Fuc(a1-3)[Gal(b1-4)]GlcNAc(b1-3)Gal(b1-3)[Fuc(a1-4)]GlcNAc
# In short: as §1
# [38] = molecular target: Fuc(a1-3)[Gal(b1-4)]GlcNAc(b1-3)Gal(b1-4)[Fuc(a1-3)]GlcNAc
# In short: as §1
# [39] = molecular target: Fuc(a1-3)[Gal(b1-4)]GlcNAc(b1-3)Gal(b1-4)[Fuc(a1-3)]GlcNAc(b1-3)Gal(b1-4)[Fuc(a1-3)]GlcNAc
# In short: as §1
# [40] = molecular target: Fuc(a1-3)[Gal(b1-4)]GlcNAc(b1-3)GalNAc
# In short: as §1
# [41] = molecular target: Fuc(a1-3)[Gal(b1-4)]GlcNAc(b1-6)GalNAc
# In short: as §1
# [42] = molecular target: Fuc(a1-3)[Gal(b1-4)]GlcNAc(b1-6)[Gal(b1-3)GlcNAc(b1-3)]Gal(b1-4)Glc
# In short: as §1
# [43] = molecular target: Fuc(a1-3)[Gal(b1-4)]GlcNAc6S
# In short: as §1
# [44] = molecular target: Fuc(a1-3)[Gal3S(b1-4)]Glc
# In short: as §1
# [45] = molecular target: Fuc(a1-3)[Gal3S(b1-4)]GlcNAc
# In short: as §1
# [46] = molecular target: Fuc(a1-3)[Gal3S(b1-4)]GlcNAc6S
# In short: as §1
# [47] = molecular target: Fuc(a1-3)[GalNAc(b1-4)]GlcNAc
# In short: as §1
# [48] = molecular target: Fuc(a1-3)[GalNAc(b1-4)]GlcNAc6S
# In short: as §1
# Fuc(a1-4)GlcNAc = molecular target: Fuc(a1-4)GlcNAc
# In short: as §1
# Fuc(b1-3)GlcNAc = molecular target: Fuc(b1-3)GlcNAc
# In short: as §1
# Gal(a1-2)Gal = molecular target: Gal(a1-2)Gal
# In short: as §1
# Gal(a1-3)Gal = molecular target: Gal(a1-3)Gal
# In short: as §1
# Gal(a1-3)Gal(b1-3)GlcNAc = molecular target: Gal(a1-3)Gal(b1-3)GlcNAc
# In short: as §1
# [49] = molecular target: Gal(a1-3)Gal(b1-3)GlcNAc(b1-2)Man
# In short: as §1
# [50] = molecular target: Gal(a1-3)Gal(b1-3)GlcNAc(b1-2)Man(a1-3)[Gal(a1-3)Gal(b1-3)GlcNAc(b1-2)Man(a1-6)]Man(b1-4)GlcNAc(b1-4)GlcNAc
# In short: as §1
# [51] = molecular target: Gal(a1-3)Gal(b1-3)GlcNAc(b1-3)GalNAc
# In short: as §1
# [52] = molecular target: Gal(a1-3)Gal(b1-3)GlcNAc(b1-6)GalNAc
# In short: as §1
# [53] = molecular target: Gal(a1-3)Gal(b1-3)[Fuc(a1-4)]GlcNAc(b1-2)Man(a1-3)[Gal(a1-3)Gal(b1-3)[Fuc(a1-4)]GlcNAc(b1-2)Man(a1-6)]Man(b1-4)GlcNAc(b1-4)GlcNAc
# In short: as §1
# Gal(a1-3)Gal(b1-4)Glc = molecular target: Gal(a1-3)Gal(b1-4)Glc
# In short: as §1
binder,measurement,setting,value
"SGC, Q9M345 (protein) QNLNFTYNGFHPPLTDISLQGLATVTPNGLLKLTNTSVQKTGHAFCTERIRFKDSQNGNVSSFSTTFVFAIHSQIPTLSGHGIAFVVAPTLGLPFALPSQYIGLFNISNNGNDTNHIFAVEFDTIQSSEFGDPNDNHVGIDLNGLRSANYSTAGYRDDHDKFQNLSLISRKRIQVWIDYDNRSHRIDVTVAPFDSDKPRKPLVSYVRDLSSILLEDMYVGFSSATGSVLSEHFLVGWSFRLNGEAPMLSLSKLPKLPRFEPRRIS",glycan array binding signal (z-score),[1],2.63
same,glycan array binding signal (z-score),[2],-0.387
same,glycan array binding signal (z-score),[3],-0.346
same,glycan array binding signal (z-score),[4],0.139
same,glycan array binding signal (z-score),[5],-0.347
same,glycan array binding signal (z-score),[6],-0.356
same,glycan array binding signal (z-score),[7],0.369
same,glycan array binding signal (z-score),[8],-0.317
same,glycan array binding signal (z-score),[9],-0.382
same,glycan array binding signal (z-score),[10],-0.389
same,glycan array binding signal (z-score),[11],-0.37
same,glycan array binding signal (z-score),[12],-0.372
same,glycan array binding signal (z-score),[13],-0.295
same,glycan array binding signal (z-score),[14],0.925
same,glycan array binding signal (z-score),[15],-0.095
same,glycan array binding signal (z-score),[16],-0.247
same,glycan array binding signal (z-score),[17],-0.445
same,glycan array binding signal (z-score),[18],-0.228
same,glycan array binding signal (z-score),[19],-0.353
same,glycan array binding signal (z-score),[20],-0.4
same,glycan array binding signal (z-score),[21],3.35
same,glycan array binding signal (z-score),[22],-0.094
same,glycan array binding signal (z-score),[23],-0.342
same,glycan array binding signal (z-score),[24],0.209
same,glycan array binding signal (z-score),[25],-0.344
same,glycan array binding signal (z-score),[26],-0.363
same,glycan array binding signal (z-score),[27],-0.321
same,glycan array binding signal (z-score),[28],0.152
same,glycan array binding signal (z-score),[29],0.292
same,glycan array binding signal (z-score),[30],1.12
same,glycan array binding signal (z-score),[31],-0.351
same,glycan array binding signal (z-score),Fuc(a1-3)GlcNAc,-0.371
same,glycan array binding signal (z-score),[32],-0.313
same,glycan array binding signal (z-score),[33],-0.36
same,glycan array binding signal (z-score),[34],-0.413
same,glycan array binding signal (z-score),[35],0.55
same,glycan array binding signal (z-score),[36],0.08
same,glycan array binding signal (z-score),[37],-0.373
same,glycan array binding signal (z-score),[38],-0.363
same,glycan array binding signal (z-score),[39],-0.373
same,glycan array binding signal (z-score),[40],-0.345
same,glycan array binding signal (z-score),[41],-0.253
same,glycan array binding signal (z-score),[42],-0.291
same,glycan array binding signal (z-score),[43],0.111
same,glycan array binding signal (z-score),[44],-0.335
same,glycan array binding signal (z-score),[45],-0.299
same,glycan array binding signal (z-score),[46],-0.241
same,glycan array binding signal (z-score),[47],-0.292
same,glycan array binding signal (z-score),[48],-0.115
same,glycan array binding signal (z-score),Fuc(a1-4)GlcNAc,-0.072
same,glycan array binding signal (z-score),Fuc(b1-3)GlcNAc,-0.232
same,glycan array binding signal (z-score),Gal(a1-2)Gal,-0.395
same,glycan array binding signal (z-score),Gal(a1-3)Gal,-0.031
same,glycan array binding signal (z-score),Gal(a1-3)Gal(b1-3)GlcNAc,-0.343
same,glycan array binding signal (z-score),[49],-0.369
same,glycan array binding signal (z-score),[50],1.46
same,glycan array binding signal (z-score),[51],-0.254
same,glycan array binding signal (z-score),[52],0.373
same,glycan array binding signal (z-score),[53],1.24
same,glycan array binding signal (z-score),Gal(a1-3)Gal(b1-4)Glc,0.068
